The full ranking holds about 33,000 sequences; the median of “E-score (-0.5 to 0.5)” is about -0.012, and the highest 2% start at about 0.29. The list shows a part of the results.
biological target: T1, Ybr033w (UniProt P38073); assay: PBM E-score (8-mer binding enrichment) (E-score (-0.5 to 0.5)); higher = stronger / more preferred TF binding; most listed sequences are background and not binding sites; details: protein concentration: 200 nM; construct: GST-full length
T1 sequence: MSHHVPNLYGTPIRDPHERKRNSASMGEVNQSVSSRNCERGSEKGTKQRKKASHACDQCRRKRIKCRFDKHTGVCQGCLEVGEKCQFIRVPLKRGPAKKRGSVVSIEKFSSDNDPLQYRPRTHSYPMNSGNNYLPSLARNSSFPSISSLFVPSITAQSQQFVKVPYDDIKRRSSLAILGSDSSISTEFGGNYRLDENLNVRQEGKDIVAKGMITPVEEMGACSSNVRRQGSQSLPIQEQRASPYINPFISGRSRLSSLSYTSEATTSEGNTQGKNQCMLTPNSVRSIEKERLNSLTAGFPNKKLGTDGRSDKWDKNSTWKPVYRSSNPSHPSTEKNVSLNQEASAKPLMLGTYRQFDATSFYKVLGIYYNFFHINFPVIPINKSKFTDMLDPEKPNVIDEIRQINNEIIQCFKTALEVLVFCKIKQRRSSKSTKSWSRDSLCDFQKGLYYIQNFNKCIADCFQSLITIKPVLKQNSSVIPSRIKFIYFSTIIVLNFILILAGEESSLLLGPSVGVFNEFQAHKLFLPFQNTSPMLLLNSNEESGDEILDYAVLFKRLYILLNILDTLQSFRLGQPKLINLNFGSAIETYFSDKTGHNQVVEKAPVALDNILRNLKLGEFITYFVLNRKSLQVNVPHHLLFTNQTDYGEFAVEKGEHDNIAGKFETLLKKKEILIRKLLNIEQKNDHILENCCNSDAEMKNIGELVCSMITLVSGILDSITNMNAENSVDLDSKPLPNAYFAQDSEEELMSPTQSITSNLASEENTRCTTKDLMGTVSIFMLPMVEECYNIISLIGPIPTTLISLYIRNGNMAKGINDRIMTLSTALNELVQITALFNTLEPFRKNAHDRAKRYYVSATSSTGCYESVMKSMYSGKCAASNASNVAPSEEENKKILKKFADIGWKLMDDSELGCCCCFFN
Method: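 Universal 'all 10-mer' protein binding microarrays (Agilent AMADID 015681) probed with GST-tagged S. cerevisiae TFs (full-length or DBD) made by in vitro transcription/translation (PURExpress), about 100-200 nM. Bound TF was detected with fluorescent anti-GST. Each ungapped 8-mer (which stands for itself and its reverse complement) is scored by the PBM enrichment score (E-score), a modified Wilcoxon-Mann-Whitney statistic from -0.5 to +0.5, computed with the Universal PBM Analysis Suite. Scale: above 0.35 generally sequence-specific binding.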

Sequence	PBM E-score
CGGGAAGA	0.189
ATTCTCTG	-0.0232
CGCCTCCG	-0.125
AGTTATCA	0.174
GAGCTATA	-0.196
AGAACTAT	0.275
TGTATCAA	0.23
ACCCGAGC	-0.0428
CAAGACAG	-0.0571
AGACGGTG	-0.193
CAGCAATG	-0.0957
CTACCTTC	0.03
ACGAGTTC	0.103
CCCAGCGA	-0.202
ACACAGAT	0.139
GGCCAACA	-0.172
ATGCCGAC	-0.0002
GCCGCCGC	-0.292
CTACTAAC	0.222
ACCTCTCA	-0.215
ATGGGGAC	-0.206
CAAAGACG	-0.11

Sequence	PBM E-score
CATGATTA	0.261
AACGCCAC	-0.2
CTCATCGA	-0.0576
AAAGCAGC	0.134
ACTACCCG	-0.029
GAACGCGC	-0.113
AGAGTGGA	0.0367
GCGACGAC	-0.0965
GAGACCTA	-0.16
GCCGTTCA	-0.0409
CCATAGAG	-0.0952
ACCACAAT	0.0398
GCGGATCC	-0.272
CCACAAGG	-0.118
AATTCATG	0.249
CCACTAGC	-0.109
CACCGATC	-0.0417
CAATGCCC	-0.253
ACTCACAA	0.161
AGGTGAAA	0.205
AGATCTAA	-0.0219
AGAGTGCG	-0.0358

Sequence	PBM E-score
GCCCGTAA	-0.0331
CAGAGAAG	-0.017
GGAATAGA	0.16
AAGGGTAT	0.12
GAAGTTGA	0.0406
CGACCGAA	-0.0989
ATGAACAG	0.06
ACTGACAG	0.055
CAGGCGTC	-0.181
CCATAATC	0.113
AGGCTGAC	-0.165
AAGCTAGC	0.00549
ATGCCGTG	-0.0779
ACGAGAGT	-0.0281
CAATCGAC	0.0305
AGGTTTCC	-0.128
AGCTTAGC	-0.152
AAAGCTGA	-0.066
GTTATTTA	0.258
ATGAATAG	0.153
CTCCTCCA	-0.0825
AGAGGAAC	0.0567

Sequence	PBM E-score
CCCTTAGG	-0.0585
GTGAAAAA	0.19
AGCGTTAG	-0.027
AGTATCAT	0.216
AGTCTTTA	0.0341
ATAGATAG	0.066
ACGCACAT	0.0191
TACGGGCA	-0.0654
CCAAGACA	0.122
CTCGCGAC	-0.056
AGCTGGAA	-0.0139
CTTGACTA	0.011
CCGAAACA	0.115
ACACGTCA	-0.0263
ATTCCTCA	0.124
AACCAGTC	0.0654
AGGCGTGG	-0.383
CCAAGCAG	-0.145
AACTAGCG	0.144
AATCTGTG	0.0911

From the supplement of paper PMC3334620
